{
  "source": "PubChem BioAssay AID1508624",
  "about": "(National Center for Advancing Translational Sciences (NCATS), 2021)",
  "note": "Among all 48,000 compounds or so, about 120 (0.25%) were called active. Not shown: some 4% with an inconclusive outcome. Calls follow the shape of the dose curve; as a rule, active = well fitted activation curve with a large enough effect; inconclusive = small, poorly fitted or top-dose-only effect, or another doubt; inactive = no such curve, though single readings can be large or run the other way. The list shows a part of the results, in another mix than the full data. Where no call is shown, the source filed none. Potency is read from the fitted curve at half-maximal effect.",
  "data": [
    {"assay": "Primary qHTS for Identification of Small Molecule Activators of Huntingtin-Antisense Promoter Activity; also: nearly all actives have a fitted effect of over 55% in size", "conditions": "HEK293 HTT-AS promoter firefly luciferase reporter, 24 h; activity change, positive = activation: at 57.5 µM (top of the series), percent change from vehicle, -100% = no light", "source_text": "Assay Provider: Russell L. Margolis M.D.\nDepartment Neurology, Johns Hopkins University School of Medicine, Baltimore, MD\nHuntington's Disease (HD) is a neurodegenerative disorder caused by a CAG repeat expansion in exon 1 of huntingtin (HTT). While there are currently no disease-modifying treatments for HD, recent efforts have focused on development of nucleotide-based therapeutics to lower HTT expression. As an alternative to siRNA or oligonucleotide methods, we hypothesized that suppression of HTT expression might be accomplished by small molecules that either (1) directly decrease HTT expression by suppressing HTT promoter activity or (2) indirectly decrease HTT expression by increasing the promoter activity of HTT-AS, the gene antisense to HTT that appears to inhibit expression of HTT.\nWe developed and employed a high throughput screen for modifiers of HTT and HTT-AS promoter activity using luminescent reporter HEK293 cells; of the 52,041 compounds tested, we identified 898 replicable hits. We used a rigorous stepwise approach to assess compound toxicity and the capacity of the compounds to specifically lower huntingtin protein in 5 different cell lines, including HEK293 cells, HD lymphoblastoid cells, mouse primary neurons, HD iPSCs differentiated into cortical-like neurons, and HD hESCs. We found no compounds which were able to lower huntingtin without lowering cell viability in all assays, though the potential efficacy of a few compounds at non-toxic doses could not be excluded.\nSEQUENCE No. (1, 2, 3, etc.); […] (e.g., Cells, Incubation, Reagent, etc.); VALUE and DESCRIPTION.\n1; Reagent; 4 uL; 2,500 Hek293 luciferase reporter cells per wells\n3; Compound; 23 nL; Control inhibitor / compound library\n5; Reagent; 2.5 uL; Firefly Luc reagent; Dual-Glo Luciferase Reporter Assay System (Promega)\n6; Time; 10 min; room temperature incubation\n7; Detection; Luminescence; FLuc\nNOTES (numbers refer to sequence above)\n1; High-throughput screening, measuring luminescence from a Hek293 luciferase reporter, was performed in 1,536 well white-walled tissue-culture treated plates. 2,500 cells were plated in 4 µL of Opti-MEM per well using a Multidrop Combi Reagent Dispenser (ThermoFisher).\n2; Assay plates were cultured for 24 hours.\n3; Control inhibitor (PTC124; final concentration of 50 uM) and compound library (at final concentrations of 460 nM - 57.5 uM) were added to the assay plate using the Kalypsis Pintool Robotic System equipped with 1536 pinheads.\n4; Cells were then incubated for 24 hours at 37 degrees C prior to luminescence measurements.\n5; In all cases, luminescence was measured using the Dual-Glo Luciferase Reporter Assay System (Promega) following the manufacturer's instructions.\n6; Room temperature incubation.\n7; Luminescence signal was obtained using the PerkinElmer ViewLux plate reader. Results were normalized to vehicle control (0% activity) and zero RLU (-100% activity).", "values": [
      {"smiles": "O=S(=O)(Nc1ccc(-c2ccc(N3CCCC3)nn2)cc1)c1ccccc1Cl", "activity change, positive = activation": "-0.493%"},
      {"smiles": "COc1cc(OC)c(NC(=O)Nc2sc3nc4n(c(=O)c3c2C)CCC(C)CC4)cc1Cl", "note": "(configuration not stated)", "activity change, positive = activation": "1.21%"},
      {"smiles": "CCc1ccc(OCC(=O)Nc2ccc(Cl)c(-c3nc4cc(C)cc(C)c4o3)c2)cc1", "activity change, positive = activation": "-0.151%"},
      {"smiles": "Cc1nn(-c2ccc(N3CCCC3)nn2)c(C)c1CCC(=O)NCc1ccc(F)cc1", "activity change, positive = activation": "2.86%"},
      {"smiles": "CC(=O)c1ccc(NC(=O)/C=C/c2ccc(C)o2)cc1", "activity change, positive = activation": "57.3%"},
      {"smiles": "Cc1ccc(OCCn2c(-c3ccc(Br)cc3)nc3ccccc3c2=O)cc1C", "activity change, positive = activation": "23.3%"},
      {"smiles": "CCOc1ccc(NC(=O)CC2C(=O)N(c3ccccc3)C(=O)N2Cc2cccc(OC)c2)cc1", "note": "(configuration not stated)", "activity change, positive = activation": "27.8%"},
      {"smiles": "COc1ccc(S(=O)(=O)Nc2cc3c(cc2N2CCOCC2)n(C)c(=O)n3C)cc1", "activity change, positive = activation": "-2.36%"},
      {"smiles": "CCc1c(C)c2ccc(O)c(CN3CCN(c4ccc(OC)cc4)CC3)c2oc1=O", "activity change, positive = activation": "-9.47%"},
      {"smiles": "Cc1ccc(-c2nnc(Nc3ccc(OCC(N)=O)cc3)c3ccccc23)cc1S(=O)(=O)N(C)C", "activity change, positive = activation": "-35%"},
      {"smiles": "Fc1ccc(C(Nc2ccccc2Cl)c2nnc(-c3ccccc3Cl)o2)cc1", "note": "(configuration not stated)", "activity change, positive = activation": "-5.11%"},
      {"smiles": "Cc1ccc(NC(=O)c2c(C)oc3ccc(O)c(CN4CCCC4)c23)c(C)c1", "activity change, positive = activation": "-6.19%"},
      {"smiles": "CCc1ccccc1NS(=O)(=O)c1ccc2oc(=O)c3ncn(C)c3c2c1", "activity change, positive = activation": "-8.31%"},
      {"smiles": "COc1ccccc1OCCCSc1nc(-c2ccc(C(C)(C)C)cc2)nc2cc(=O)[nH]n12", "activity change, positive = activation": "-9.71%"},
      {"smiles": "Cc1ccc(Cl)cc1NS(=O)(=O)c1ccc2oc(=O)c3ncn(C)c3c2c1", "activity change, positive = activation": "-10.4%"},
      {"smiles": "Cc1oc2ccc(O)c(CN3CCCC3)c2c1C(=O)Nc1ccccc1", "activity change, positive = activation": "-5.82%"},
      {"smiles": "CC(C)N=C(N)/N=C(\\N)Nc1ccc(Cl)cc1", "activity change, positive = activation": "inactive: -8.47%"},
      {"smiles": "COCCOC(=O)C1=C(C)NC2=C(C(=O)CC(c3ccccc3OC)C2)C1c1cccc(O)c1", "note": "(configuration not stated)", "activity change, positive = activation": "inactive: -9.15%"},
      {"smiles": "CC1Cc2cc(S(=O)(=O)NCCc3ccc(Cl)cc3)ccc2N1C(=O)C1CCC1", "note": "(configuration not stated)", "activity change, positive = activation": "-23.3%"},
      {"smiles": "Fc1ccc(-n2ncc3c(NCCCn4ccnc4)ncnc32)cc1", "Potency": "active: 2820 nM"},
      {"smiles": "CC1Cc2cc(S(=O)(=O)CCC(=O)NCc3ccc(Cl)cc3)ccc2N1C(=O)C1CC1", "note": "(configuration not stated)", "activity change, positive = activation": "-7.23%"},
      {"smiles": "COCCOC(=O)C1=C(C)NC(=O)NC1c1cn(-c2ccccc2)nc1-c1ccccc1", "note": "(configuration not stated)", "activity change, positive = activation": "-2.52%"},
      {"smiles": "O=C(CN1CCN(Cc2ccccc2F)C1=O)NCc1ccccc1", "activity change, positive = activation": "inactive: -10.6%"},
      {"smiles": "CCOc1ccc(CNC(=O)c2cc3ccccn3n2)cc1", "activity change, positive = activation": "54.2%"},
      {"smiles": "CCCC(=O)Nc1ccc2oc(-c3ccc(O)c(Br)c3)nc2c1", "activity change, positive = activation": "99.8%"},
      {"smiles": "Cc1cc(Nc2cccc(Cl)c2)nc2ccc(NC(=O)COc3ccc(Cl)cc3)cc12", "activity change, positive = activation": "inactive: -5.81%"},
      {"smiles": "COc1ccc(C)cc1NS(=O)(=O)c1ccc2oc(=O)c3ncn(C)c3c2c1", "activity change, positive = activation": "-6.96%"},
      {"smiles": "O=C(NCCSCc1ccccc1)C1CCN(S(=O)(=O)Cc2ccccc2)CC1", "activity change, positive = activation": "0.671%"},
      {"smiles": "CCc1ccc(CCOc2ccc(CC3SC(=O)NC3=O)cc2)nc1", "note": "(configuration not stated)", "Potency": "inactive"},
      {"smiles": "COc1ccc(NC(=O)Nc2cc(C(=O)NCc3ccc(C)cc3)ccc2N2CCCC2)cc1", "activity change, positive = activation": "inactive: 6.46%"},
      {"smiles": "CCc1ccc(NC(=O)CC2C(=O)N(c3ccc(F)cc3)C(=O)N2Cc2ccc(F)cc2)cc1", "note": "(configuration not stated)", "activity change, positive = activation": "-18.4%"},
      {"smiles": "COc1cc(OC)c2c(C)c(CC(=O)NCc3ccccc3OC)c(=O)oc2c1", "activity change, positive = activation": "8.28%"},
      {"smiles": "O=S(=O)(Nc1cccc(-c2ccc(N3CCOCC3)nn2)c1)c1ccc(F)c(C(F)(F)F)c1", "activity change, positive = activation": "20%"},
      {"smiles": "COc1ccccc1N1CCN(C(=O)COc2ccccc2C#N)CC1", "activity change, positive = activation": "-6.25%"},
      {"smiles": "COc1cc(OC)c2c(C)c(CC(=O)N3CCCCC3)c(=O)oc2c1", "activity change, positive = activation": "6.37%"},
      {"smiles": "Cc1cc(=O)n2c(C(=O)Nc3ccc(C)c(C)c3)c(C(=O)Nc3ccccc3)sc2n1", "activity change, positive = activation": "-17.1%"},
      {"smiles": "O=C(CSc1nc(-c2ccco2)nc2cc(=O)[nH]n12)Nc1ccccc1Cl", "activity change, positive = activation": "-9.48%"},
      {"smiles": "COc1ccc(Cl)cc1NC(=O)c1c(C(=O)Nc2cccc(C)c2C)sc2nc(C)cc(=O)n12", "activity change, positive = activation": "-8.35%"},
      {"smiles": "COc1ccc(CNS(=O)(=O)c2cc(C(=O)Nc3cc(Cl)cc(Cl)c3)ccc2F)cc1", "activity change, positive = activation": "inactive: -31%"},
      {"smiles": "CCc1nn(-c2ccccc2)c2nc(-c3ccccc3OC)c3cc(OC)c(OC)cc3c12", "activity change, positive = activation": "-18.1%"},
      {"smiles": "COc1cc(-c2nnc(SCCOc3ccc(Cl)cc3C)o2)cc(OC)c1OC", "activity change, positive = activation": "-4.92%"},
      {"smiles": "Cc1ccc(Cl)c2c1N[C@@H](c1ccc(C(=O)O)cc1)[C@H]1CC=C[C@@H]21", "activity change, positive = activation": "-7.35%"},
      {"smiles": "COc1ccc(C(CC(=O)Nc2ccc(Br)cn2)N2Cc3ccccc3C2=O)cc1", "note": "(configuration not stated)", "activity change, positive = activation": "-14.8%"},
      {"smiles": "Cc1nn(CC(=O)NCc2ccc(N(C)C)cc2)c(=O)c2nn(-c3ccccc3)c(C)c12", "activity change, positive = activation": "inactive: 5.45%"},
      {"smiles": "CCc1cccc(NS(=O)(=O)c2ccc3c(c2)N(CC(=O)OC)C(=O)CS3)c1", "activity change, positive = activation": "-13.9%"},
      {"smiles": "CC(C)c1ccccc1NC(=O)Cn1cnc2c1c(=O)n(C)c(=O)n2C", "activity change, positive = activation": "-7.54%"},
      {"smiles": "CCCNC(=O)c1c(NC(=O)c2ccccc2)sc2c1CCC(C(C)(C)C)C2", "note": "(configuration not stated)", "activity change, positive = activation": "inactive: -12.5%"}
    ]}
  ]
}
